Laboratory results reported in PubChem BioAssay AID1645887 (National Center for Advancing Translational Sciences (NCATS), 2021).
Values joined by “and” are separate entries in the source; they are usually repeats but may differ in a detail not shown here. Equal values may be shown once. Out of some 16,000 compounds screened, about 40 (0.2%) were called active. Another 1% or so got no clear call; they are omitted. Calls follow the shape of the dose curve; as a rule, active = well fitted activation curve with a large enough effect; inconclusive = small, poorly fitted or top-dose-only effect, or another doubt; inactive = no such curve, though single readings can be large or run the other way. The list shows a part of the results.

molecular target: Rap guanine nucleotide exchange factor 4 (Homo sapiens) (UniProt Q8WZA2); test: Validation qHTS for agonist of cAMP-regulated guanine nucleotide exchange factor 4 (EPAC2); conditions: EPAC2 Rap1B BODIPY-GDP exchange, fluorescence; activation: hits give high values;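 also: exchange makes BODIPY-GDP fluorescence drop when released from Rap1B; series mostly up to about 150 µM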
Sequence of UniProt Q8WZA2 (Q8WZA2 whole entry, looked up): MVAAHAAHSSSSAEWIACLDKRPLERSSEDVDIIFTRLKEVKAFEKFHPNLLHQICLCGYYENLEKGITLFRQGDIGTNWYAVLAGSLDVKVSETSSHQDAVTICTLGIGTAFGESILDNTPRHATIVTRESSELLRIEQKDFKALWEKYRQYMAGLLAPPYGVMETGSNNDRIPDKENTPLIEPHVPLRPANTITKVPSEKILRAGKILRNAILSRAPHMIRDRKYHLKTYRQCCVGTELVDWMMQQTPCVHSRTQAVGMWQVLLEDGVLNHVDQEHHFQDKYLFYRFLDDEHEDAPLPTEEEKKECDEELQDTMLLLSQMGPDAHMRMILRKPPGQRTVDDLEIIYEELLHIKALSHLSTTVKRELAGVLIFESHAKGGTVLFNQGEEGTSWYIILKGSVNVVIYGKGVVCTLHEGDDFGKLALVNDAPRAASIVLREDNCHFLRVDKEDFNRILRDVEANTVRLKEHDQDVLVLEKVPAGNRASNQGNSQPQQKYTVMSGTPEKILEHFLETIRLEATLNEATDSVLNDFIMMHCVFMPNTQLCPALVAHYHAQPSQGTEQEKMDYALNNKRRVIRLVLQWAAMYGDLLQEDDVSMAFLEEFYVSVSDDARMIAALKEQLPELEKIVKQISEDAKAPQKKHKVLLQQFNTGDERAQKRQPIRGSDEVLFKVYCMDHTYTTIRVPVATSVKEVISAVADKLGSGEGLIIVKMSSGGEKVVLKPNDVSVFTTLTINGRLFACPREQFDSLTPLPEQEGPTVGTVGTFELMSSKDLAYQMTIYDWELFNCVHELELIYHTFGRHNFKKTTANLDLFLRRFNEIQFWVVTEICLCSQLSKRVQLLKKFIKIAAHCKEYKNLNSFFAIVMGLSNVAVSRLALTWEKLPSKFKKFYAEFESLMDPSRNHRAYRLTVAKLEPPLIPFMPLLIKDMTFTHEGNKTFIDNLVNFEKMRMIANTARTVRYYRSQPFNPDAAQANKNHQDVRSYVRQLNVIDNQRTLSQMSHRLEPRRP
How it was run: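 Signal normalized against 6.5 mM cAMP as agonist control. Mix of EPAC2 (100 nM), RAP1B-BODIPY-GDP (250 nM) and GDP (50 uM) was read kinetically at 480/540 nm, every 5 min over 30 min, after 5 min room-temperature incubation with compound.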
% is scaled to controls: 0 for no effect and ±100 for the full control effect.

activation, inactive:
COC(=O)[C@@H]1C[C@H](NC(=O)c2ccccc2C(F)(F)F)CN1Cc1cccc(O)c1 -9.41%, Cc1ccccc1-c1nccc(NCc2cccnc2)n1 -10.5%, COc1cccc(Cn2c(=O)c(-c3cccs3)nc3cnc(Nc4cccc(OC)c4)nc32)c1 4.15%, O=C(C[n+]1ccnc2ccccc21)c1ccc(Cl)cc1 -16.5%, COc1ccnc(CS(=O)c2nc3ccc(OC(F)F)cc3[nH]2)c1OC (stereo unspecified) 4.36%, CC[C@@H]1[C@H]2CCCC(=O)N3CC[C@@H](C[C@H]1O)[C@@H]23 -8.94%, O=C(NCCN1Cc2ccccc2OC(c2ccccc2F)C1)c1ccco1 (stereo unspecified) -16.6%, COc1cc2c(cc1OC)C(/C=C/c1ccc(OC)c(OC)c1OC)=NCC2 -14.1%, O=C(c1cnccn1)N1CCC2(CC1)CCN(c1cccc(-c3ccccc3)c1)CC2 -15.8%, Cc1ccc(CN2CCc3nnc(C(C)NC(=O)c4cc(F)ccc4F)n3CC2)o1 (stereo unspecified) 2.95%, CC(=O)Nc1ccc(SCCN2CC[C@@H](C(C)(C)C)CCC2=O)cc1 -33.7%, COc1cc(CN2CCOc3ccc(CN4CCN(CCO)CC4)cc3C2)ccc1F -17.1%, CCC1C(=O)NCCN1Cc1ccc2c(c1)CN(Cc1cccc(OC)c1)CCO2 (stereo unspecified) 6.63%, CN(C(=O)c1c(O)c2ccccc2n(C)c1=O)c1ccccc1 -10.5%, OCc1ccccn1 -9.48%, O=C(Oc1ccccc1)N1CCC2(CC1)CCN(c1ccccn1)CC2 -30.6%, COc1cc(-c2cc(C)c3c(OC)ccc(OC)c3n2)cc2c1OCCN(Cc1cn(C)nc1C)C2 3.45%, COc1cc(=O)n2c(c1C(=O)N(C)C(C)c1ccco1)CCN(C(=O)c1ccc(C(C)=O)cc1)CC2 (stereo unspecified) 9.38%, COc1ccc2c(c1)OC(C)CN(CCNC(=O)c1cccc(N3CCNC3=O)c1)C2 (stereo unspecified) -7.46%, O=C(NCCc1nnc2n1CCN(Cc1ccccn1)CC2)c1ccc(F)cc1 -1.81%, CCS(=O)(=O)Nc1cc(C(=O)N2CCCN(C=O)CC2)c2c(c1)nc(-c1ccccc1)n2C -2.52%, COc1ccc(CNC(=O)[C@@H]2CC=C[C@@H]3CCN(C4CCCCC4)C(=O)[C@@H]32)cc1 -7.04%, COC1=CC(=O)C=C(OC)C1=O 7.62%, COC(=O)C1OC(=O)C2OC23[C@]2(C)C(OC(C)=O)CC4C(C)(C)C(=O)CC[C@]4(C)C2CC[C@@]13C (stereo partly specified) -8.86%, CCc1ccc(C(=O)C(C)CN2CCCCC2)cc1 (stereo unspecified) -7.8%, CC(C)N1[N]C(=C2C=c3cc(O)ccc3=N2)c2c(N)ncnc21 -6.48%, COc1cc(OC)c2c(=O)c(-c3ccccc3)c(C)oc2c1OC -1.16%, O=C(c1cnccn1)N1CCC[C@@]2(CCN(Cc3ccncc3)C2)C1 -6.74%, CC(CCC(=O)O)C1CCC2C3CC[C@H]4CC(O)CC[C@@]4(C)C3C=C[C@]12C (stereo partly specified) -3.85%, COc1ccc(CN2CCN(C(c3ccc(F)cc3)c3ccc(F)cc3)CC2)c(OC)c1OC -9.75%, CC(C)Cc1ccc(C(C)C(=O)O)cc1 (stereo unspecified) -6.1% and 5.21% and -26.9%, CC(C)C[C@@H](CN=[N+]=[N-])N1CCN(CC(C)C)CCC1=O -11.8%, [Cl][In]([Cl])[Cl] -14.9%, COc1cc2c(cc1OC)C(=O)N(C)CC2 -9.91%, COC(=O)c1cc(-c2c(-c3cc(OC)c(OC)c(OC)c3)noc2C)cc([N+](=O)[O-])c1 -4.06%, C#CCN(C1CCCC1)S(=O)(=O)C=C -11.6%, COC(=O)N1CCC2(CCCN(C(c3ccccc3)c3ccccc3)C2)CC1 -12.3%, COc1ccc(CCNC(=O)c2cnn(-c3nccc(-c4cccs4)n3)c2C)cc1OC -15.8%, CC(=O)NCCNc1ncnc2ccc(-c3ccc4c(c3)OCO4)cc12 2.54%, N#Cc1cccc(-c2cc(NCc3cccs3)ncn2)c1 -20.6%, O=C(Cn1cncn1)NCC1Cc2cc(-c3ccsc3)cc(Cl)c2O1 (stereo unspecified) -13.7%, CC(C)(C)NC[C@H](O)COc1ccccc1C1CCCC1 2.51%, COC(=O)C[C@H]1c2cc(C(F)(F)F)ccc2S(=O)(=O)N1C(C)C -35.6%, COc1cc(-c2cccc(Cl)c2)cc2c1OCCN(C(=O)CCn1ccc(C)n1)C2 -18.2%, Cc1nc2cc(NC(=O)[C@@H]3C[C@@H](Sc4ccccn4)CN3Cc3ccccc3F)ccc2s1 3.35%, CC(C)(C)NCC(O)COc1cccc2c1C[C@H](O)[C@H](O)C2 (stereo partly specified) 1.58%, COc1ccc(NC(=O)N2CC3(CCN(S(=O)(=O)c4ccccc4)CC3)C2)cc1 -7.63%, Nc1nc(=O)n(C2OC(CO)C(O)C2O)cc1Cl (stereo unspecified) -10.6%, CCCCC[C@H](O)C=C[C@H]1[C@H](O)CC(=O)[C@H]1CCCCCCC(=O)O -15.3%, COc1ccc(C(=O)c2ccccc2O)c(O)c1 -4.9% and -5.65%, COc1ccccc1CN1CCC2(CC1)CCN(C(=O)c1csnn1)CC2 -11.2%, COc1ccc(OC)c(CN2CCCC(c3nc(-c4ccncc4)ncc3-c3ccccc3C)C2)c1 (stereo unspecified) -2.68%, O=C(c1csnn1)N1CCC2(CC1)CN(c1ccccn1)C2 -22.7%, COCCc1ccc(OCC(O)CNC(C)C)cc1 (stereo unspecified) -2.34% [middle of 4 runs], COc1ccc(CNc2ncncc2-c2ccc(N(C)C)cc2)c(OC)c1 -5.86%, COc1ccc(O)c(C(=O)N2CCC3(CC2)c2ccccc2[C@@H](NC(=O)c2ccccn2)[C@@H]3OC)c1 -11%
